Reference: paper PMC9287920, “Targeting IL-6 by engineered Lactococcus lactis via surface-displayed affibody” (Microbial Cell Factories, 2022)

Target: T1, flag-tagged ZIL fusion protein (Usp45 signal, flag tag, IL-6-binding affibody ZIL, AcmA anchor), displayed on …
T1 construct: surmised from the DNA; also called ZIL-flag; ZIL-flag-displaying L. lactis; not shown: Usp45 signal peptide, N-terminal, cleaved; AcmA C-terminal domain (acmA3b anchor), C-terminal, kept
Test: flow cytometry on cells; 8 × 10^7 CFU of intact L. lactis incubated overnight at 4 °C with 1 µg/ml biotin-labeled human IL-6 in 500 µL TBS; detected with mouse anti-biotin antibody and Alexa Fluor 488 secondary antibody; geometric MFI
Conditions: one partner purified

fold mean fluorescence intensity over empty plasmid control cells: 80 fold
B1: recombinant human biotin-labeled IL-6 (ligand)
chain: not shown
modifications: biotin (site not stated)
notes: interleukin-6, human, recombinant, biotin-labeled (Immunotools); also called biotinylated IL-6; IL-6-biotin; source: bought: Immunotools
